Assay results taken from the BET-seq Pho4 binding data (Le et al. 2018).
The other results are listed elsewhere or left out. The energies were worked out here from pooled read counts, against the library average; single values are noisy.

Each sequence was assayed against T1, Pho4 (S. cerevisiae) (UniProt P07270) (assay: relative binding free energy (BET-seq); higher = weaker binding). Conditions: reference: library average.
T1 sequence: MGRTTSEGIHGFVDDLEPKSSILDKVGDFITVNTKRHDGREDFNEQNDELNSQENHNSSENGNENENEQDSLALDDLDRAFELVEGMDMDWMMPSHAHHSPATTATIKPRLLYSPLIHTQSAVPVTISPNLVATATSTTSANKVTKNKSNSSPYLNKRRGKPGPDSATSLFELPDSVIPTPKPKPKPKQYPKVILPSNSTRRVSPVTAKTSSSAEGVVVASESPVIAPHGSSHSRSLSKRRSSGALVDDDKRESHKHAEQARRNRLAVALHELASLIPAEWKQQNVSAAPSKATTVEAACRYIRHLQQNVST

| Sequence | relative binding free energy [kcal/mol] |
| --- | --- |
| TATTACACGTGCGTGG | 0.07 |
| GGGTTCACGTGATGTC | 0.43 |
| TTAATCACGTGTAATG | 0.1 |
| GTATTCACGTGGAGAT | 0.36 |
| AGATTCACGTGGATTA | 0.31 |
| GGGCTCACGTGTAGGT | 0.2 |
| TATTCCACGTGGTCGG | 0.04 |
| GTTTGCACGTGAAGTT | 0.32 |
| CTTTGCACGTGGGCTT | -0.19 |
| TTTATCACGTGCGCTG | 0.11 |
| TACAGCACGTGGGTTA | -0.18 |
| AATTCCACGTGGTAGG | -0.06 |
| TGTGTCACGTGGTGAT | 0 |
| TTCTTCACGTGGCGTA | 0.29 |
| TGGGCCACGTGGCGCT | -0.09 |
| TTAGTCACGTGGGCTG | -0.13 |
| GTACGCACGTGGCGGG | -0.2 |
| GAGTGCACGTGTAAGG | 0.06 |
| AGGAACACGTGTTTAT | -0.1 |
| GATTCCACGTGATGGG | 0.26 |
| GTCTGCACGTGGACGT | 0.07 |
| AGGTGCACGTGGGTGC | -0.21 |
| TTGTCCACGTGTTTAT | 0.01 |

| Sequence | relative binding free energy [kcal/mol] |
| --- | --- |
| CGGTTCACGTGTGGGC | 0.25 |
| CGGGTCACGTGGTTTC | 0.12 |
| TGGGACACGTGATTCT | 0.13 |
| CGTTACACGTGAAGGT | 0.28 |
| CGTGTCACGTGGGAAA | 0.06 |
| GGGGTCACGTGAGTGT | 0.42 |
| GGGTTCACGTGGAGGA | 0.3 |
| TTTCCCACGTGTGGTG | -0.07 |
| CGGTACACGTGGGAGT | -0.04 |
| GTTGGCACGTGAGCGA | 0 |
| GAAGACACGTGATTGG | 0.22 |
| GTTTTCACGTGGGCCT | 0.42 |
| CTGTGCACGTGTAGAG | 0.08 |
| GGGAGCACGTGAGTTG | 0.18 |
| TTGATCACGTGTTAAA | 0.24 |
| TGGCACACGTGTGGGC | 0.09 |
| GGTGGCACGTGCGCTA | -0.18 |
| AGGTGCACGTGGATGA | -0.06 |
| TTAATCACGTGGGATA | -0.02 |
| ATCTTCACGTGTATTT | 0.17 |
| CGTTTCACGTGAAGGG | 0.28 |
| GAGTCCACGTGTCGGT | 0.26 |
| AAGTGCACGTGCGGGA | -0.09 |

| Sequence | relative binding free energy [kcal/mol] |
| --- | --- |
| GTTATCACGTGGGCTT | 0.05 |
| CGTGTCACGTGGGGGA | -0.11 |
| TTGGACACGTGTGGCC | 0.12 |
| TCGTGCACGTGGTTGA | -0.11 |
| CTGGTCACGTGGCTTG | 0.01 |
| GGATGCACGTGAGGTC | 0.2 |
| ATATACACGTGTAATT | -0.07 |
| AAATGCACGTGGATGT | -0.13 |
| CATGGCACGTGAGTGG | 0.08 |
| ATAGGCACGTGTGAGG | -0.07 |
| TATCCCACGTGTTTTT | 0.02 |
| TCGCGCACGTGTTGTT | -0.18 |
| TAGTTCACGTGGCTGA | 0.19 |
| AGGTCCACGTGTAGGA | 0.11 |
| AGGTGCACGTGATGTC | 0.04 |
| CCTGTCACGTGAGGTG | 0.3 |
| TGCGCCACGTGTAGGG | -0.01 |
| GTGTACACGTGGGAAT | 0.07 |
| ACTTTCACGTGGGGGG | 0.13 |
| AGTAACACGTGGGTGA | -0.23 |
| GTATGCACGTGGCGTG | -0.16 |
| TGAGGCACGTGCGTTG | -0.22 |
| TTAATCACGTGGGATT | 0.11 |

| Sequence | relative binding free energy [kcal/mol] |
| --- | --- |
| ATGTACACGTGCATGG | -0.04 |
| ACTGGCACGTGTTATT | -0.07 |
| ACGGGCACGTGAGGGT | 0.04 |
| ATACGCACGTGTTATT | 0.09 |
| TCGTTCACGTGAGTTT | 0.53 |
| CAGATCACGTGTTGGG | 0.16 |
| TGAATCACGTGCTGGT | -0.03 |
| TTCGTCACGTGCGGGC | 0.12 |
| GTTTTCACGTGTCAAA | 0.41 |
| CGTGCCACGTGAGTGT | 0.07 |
| GGTCTCACGTGTTAAT | 0.29 |
| TAGCGCACGTGGCTGG | -0.21 |
| TTTCGCACGTGTTAAA | -0.03 |
| TCGTTCACGTGATTGT | 0.39 |
| GGGGACACGTGGAGTA | 0.06 |
| TTGGTCACGTGGCTGA | 0.04 |
| TGACGCACGTGGTTGC | -0.05 |
| GGATGCACGTGGGCGA | -0.17 |
| ATTGTCACGTGAAGCG | 0.29 |
| GGGAACACGTGTTGGA | 0.16 |
| GATGTCACGTGCGGAG | 0.05 |
| TGGCTCACGTGAGTCT | 0.41 |
| ATTGGCACGTGGTGCT | -0.17 |

| Sequence | relative binding free energy [kcal/mol] |
| --- | --- |
| AGATTCACGTGAGATA | 0.42 |
| TCATGCACGTGGGGGA | -0.12 |
| GGATGCACGTGGGTGC | -0.06 |
| TTTTGCACGTGTTAGC | 0.03 |
| CGTGTCACGTGTGACG | 0.03 |
| GTGTGCACGTGAGTAT | 0.28 |
| TTTGACACGTGATGAT | 0.15 |
| CTGTTCACGTGGGTGC | 0.21 |
| GCGCGCACGTGGAGGG | -0.23 |
| TAATTCACGTGGGTAA | 0.01 |
| ATTGCCACGTGGTTAT | -0.09 |
| GGGTACACGTGGAGGG | -0.01 |
| CTAGGCACGTGTAATT | 0.15 |
| TATTTCACGTGTTGTC | 0.27 |
| CGTGTCACGTGTACGT | 0.07 |
| TATTTCACGTGGGGGG | 0.15 |
| TTTTTCACGTGTGAGT | 0.33 |
| TGGATCACGTGCGATT | 0.14 |
| AGTGACACGTGGTTGA | -0.04 |
| TTGCACACGTGAATGG | 0.29 |
| TGAGTCACGTGCAAGG | 0.07 |
| TGACTCACGTGGGTAT | 0.14 |
| AAGAGCACGTGGTCGG | -0.33 |
